Data: PubChem BioAssay AID1159614 (National Center for Advancing Translational Sciences (NCATS), 2016)
The campaign covered roughly 45,000 compounds. About 65 (0.1%) were called active. The call rests on the fitted dose curve; in most records, active means well fitted activation curve with a large enough effect; inconclusive means small, poorly fitted or top-dose-only effect; inactive means no such curve, though single readings can be large or run the other way. This is one part of the list.

Molecular target: Galactocerebrosidase (Homo sapiens) (UniProt P54803)
Chain of UniProt P54803 (P54803 whole entry, looked up): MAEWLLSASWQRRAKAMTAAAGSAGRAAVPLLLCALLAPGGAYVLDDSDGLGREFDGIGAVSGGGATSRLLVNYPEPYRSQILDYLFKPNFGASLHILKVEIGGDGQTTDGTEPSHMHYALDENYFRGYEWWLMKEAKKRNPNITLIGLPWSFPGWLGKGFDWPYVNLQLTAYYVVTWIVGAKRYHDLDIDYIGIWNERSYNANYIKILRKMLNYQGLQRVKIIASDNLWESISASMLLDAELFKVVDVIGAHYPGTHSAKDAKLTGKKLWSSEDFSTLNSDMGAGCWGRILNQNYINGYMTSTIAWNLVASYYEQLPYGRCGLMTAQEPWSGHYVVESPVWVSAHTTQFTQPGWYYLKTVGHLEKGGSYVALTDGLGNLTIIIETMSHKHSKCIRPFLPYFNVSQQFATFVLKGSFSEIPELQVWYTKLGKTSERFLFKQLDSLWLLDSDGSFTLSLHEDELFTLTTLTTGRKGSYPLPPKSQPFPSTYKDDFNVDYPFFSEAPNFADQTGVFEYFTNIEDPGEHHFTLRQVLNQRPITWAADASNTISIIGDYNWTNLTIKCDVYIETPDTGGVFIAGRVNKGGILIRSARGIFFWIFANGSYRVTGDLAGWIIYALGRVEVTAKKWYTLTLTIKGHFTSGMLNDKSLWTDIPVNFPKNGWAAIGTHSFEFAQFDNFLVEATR
Assay: A Novel Cell-Based Assay to Identify Small Molecules for B -Galactocerebrosidase; further: 0% is about no effect; nearly all actives have a fitted effect of over 65% in size
Settings: 145M-Twi-hGALC-G270D cells (Twitcher mouse brain line with human GALC G270D), HMU-beta-Gal fluorescence, 48 h; series mostly up to 57.5 µM; activation: at the top concentration
Outline: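 Fluorescence readout: HMU-β-gal cleavage by mutant GALC (0.1 mM final, citrate/phosphate pH 5.2 with 1 mg/mL taurocholate), stopped with carbonate/bicarbonate plus Triton X-100. Cells: murine Twitcher 145M-Twi expressing human G270D GALC; qHTS for activators.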

activation, inactive:
Cc1ccccc1NC(=O)CSc1nccn1C -20.1%
Cc1nn(C)c2c1c(C(F)(F)F)cc(=O)n2CC(=O)Nc1ccc(F)cc1F -7.72%
Cc1cc(F)ccc1NC(=O)C1CCCN(C(=O)c2cnn(-c3ccccc3)c2-n2cccc2)C1 (stereo not drawn) 7.03%
COc1ccc(OC(=O)c2cn(-c3cccc(OC)c3)c(=O)c3ccccc23)cc1 -13%
Cc1ccc(OC(C)C(=O)N2CCN(CCc3ccccn3)CC2)cc1C (stereo not drawn) -11%
O=S(=O)(NCC(c1ccco1)S(=O)(=O)c1cccs1)c1ccccc1 (stereo not drawn) -4.09%
Cc1cc(C)c(NC(=O)C(C)n2nc(C)c3sc4ccccc4c3c2=O)c(C)c1 (stereo not drawn) -19.7%
COc1cccc(N2CC(NC(=O)c3cccs3)CC2=O)c1 (stereo not drawn) -14.5%
O=C(O)C(=O)Nc1cccc(-c2nn[nH]n2)c1 -3.7%
Cc1cc(Cl)ccc1NC(=O)C1CCCN(c2nnc(C)c3c(C)n(-c4ccccc4)nc23)C1 (stereo not drawn) -10.5%
CC(CCc1ccccc1)NC(=O)CSc1n[nH]c(-c2ccccc2Cl)n1 (stereo not drawn) -13.5%
CCc1ccc(CNC(=O)c2ccc(Cn3c(=O)c4cccn4c4cccnc43)cc2)cc1 -6.61%
CCCc1nnc(NC(=O)CSc2nnc3c4ccccc4n(CC)c3n2)s1 -19.7%
Cc1nc2ccccc2n1CCc1nc2c3ccccc3nc(SCc3ccccc3F)n2n1 -1.38%
Cc1cccc(OCC(=O)Nc2ccc3nc(SCc4ccccc4)sc3c2)c1 1.47%
COc1ccc(N(CC(=O)N2CCN(c3cccc(Cl)c3)CC2)S(=O)(=O)c2c(C)noc2C)cc1 -11.8%
CCOc1ccc(C(=O)N2CC(=O)Nc3ccc(F)cc3C2c2ccc(F)cc2)cc1 (stereo not drawn) -8.54%
COCCn1c(C)cc(O)c(C(c2cccc(F)c2)N2CCN(c3ccccc3)CC2)c1=O (stereo not drawn) -19.1%
CC(C)NC(=O)C1CCCN(S(=O)(=O)c2ccc3c(ccn3C)c2)C1 (stereo not drawn) -12.3%
CCc1cccc(C)c1NC(=O)c1cc(CN2CCCC2)on1 -7.58%
O=C(Nc1ccc2oc(-c3cccc4c(Br)cccc34)nc2c1)c1cccc(Cl)c1 -19.1%
COc1cc(C(=O)N2CCCCCCC2)cc(OC)c1OC -16.6%
CCc1nnc2c(Nc3cc(OC)c(Cl)cc3OC)nc3ccccc3n12 -6.61%
COc1ccc(-c2oc3ncn4nc(COc5ccc(Cl)cc5)nc4c3c2-c2ccc(OC)cc2)cc1 -17.6%
CCc1ccc(S(=O)(=O)c2cn(C)c3ccc(C)cc3c2=O)cc1 -13.1%
CN1CCN(C(=O)C2CCCCC2)CC1 -13.1%
COC(=O)c1cc2occc2n1Cc1nc(-c2ccc(Cl)cc2)oc1C -1.94%
Cc1ccc(NC(=O)Cn2cc(S(=O)(=O)Cc3ccccc3)c3ccccc32)cc1C -7.97%
